# According to FireProtDB (doi:10.1016/0022-2836(81)90253-9):
# B1: Pepsin A wild type, P00791 (protein)
# chain: MKWLLLLSLVVLSECLVKVPLVRKKSLRQNLIKNGKLKDFLKTHKHNPASKYFPEAAALIGDEPLENYLDTEYFGTIGIGTPAQDFTVIFDTGSSNLWVPSVYCSSLACSDHNQFNPDDSSTFEATSQELSITYGTGSMTGILGYDTVQVGGISDTNQIFGLSETEPGSFLYYAPFDGILGLAYPSISASGATPVFDNLWDQGLVSQDLFSVYLSSNDDSGSVVLLGGIDSSYYTGSLNWVPVSVEGYWQITLDSITMDGETIACSGGCQAIVDTGTSLLTGPTSAIANIQSDIGASENSDGEMVISCSSIDSLPDIVFTINGVQYPLSPSAYILQDDDSCTSGFEGMDVPTSSGELWILGDVFIRQYYTVFDRANNKVGLAPVA
# Conditions: Sus scrofa, Thermal, DSC, transition: 3, reversible: yes, whole UniProt chain shown
# [1] = pH 5.9, sodium cacodylate 5 mM, NaCl 100 mM
# [2] = pH 6.5, sodium phosphate 5 mM, NaCl 100 mM
# [3] = pH 7.1, sodium phosphate 5 mM, NaCl 10 mM
# [4] = pH 7.1, sodium phosphate 5 mM, NaCl 100 mM
# [5] = pH 7.5, sodium phosphate 5 mM, NaCl 100 mM
protein,measurement,setting,value
B1,Tm,[1],64 °C
same,unfolding enthalpy (calorimetric),[1],100 kcal/mol
same,unfolding enthalpy (van 't Hoff),[1],55 kcal/mol
same,Tm,"pH 5.9, sodium cacodylate 5 mM",62 °C and 64 °C
same,unfolding enthalpy (calorimetric),"pH 5.9, sodium cacodylate 5 mM",167 kcal/mol and 102 kcal/mol
same,unfolding enthalpy (van 't Hoff),"pH 5.9, sodium cacodylate 5 mM",105 kcal/mol and 55 kcal/mol
same,unfolding enthalpy (calorimetric),[2],120 kcal/mol and 104 kcal/mol
same,unfolding enthalpy (van 't Hoff),[2],71 kcal/mol and 55 kcal/mol
same,Tm,"pH 6.5, sodium phosphate 5 mM",50 °C and 55 °C
same,unfolding enthalpy (calorimetric),"pH 6.5, sodium phosphate 5 mM",130 kcal/mol and 83 kcal/mol
same,unfolding enthalpy (van 't Hoff),"pH 6.5, sodium phosphate 5 mM",80 kcal/mol and 45 kcal/mol
same,unfolding enthalpy (calorimetric),[3],99 kcal/mol and 87 kcal/mol
same,unfolding enthalpy (van 't Hoff),[3],65 kcal/mol and 50 kcal/mol
same,unfolding enthalpy (calorimetric),[4],97 kcal/mol
same,unfolding enthalpy (van 't Hoff),[4],47 kcal/mol
same,unfolding enthalpy (calorimetric),"pH 7.1, sodium phosphate 5 mM",106 kcal/mol and 74 kcal/mol
same,unfolding enthalpy (van 't Hoff),"pH 7.1, sodium phosphate 5 mM",70 kcal/mol and 46 kcal/mol
same,Tm,[5],60 °C
same,unfolding enthalpy (calorimetric),[5],92 kcal/mol
same,unfolding enthalpy (van 't Hoff),[5],46 kcal/mol

# Several values for one entry are separate records, joined by “and”; a condition that tells them apart may be missing. Equal values may be shown once.
